Screen size: about 310,000 compounds; about 2,200 (0.71%) showed an effect of 50% or more. Effects have a minus sign here. Some of the results follow.
biological target: human ether-à-go-go-related gene (hERG) potassium channel (human, UniProt Q12809); test: primary screen, population patch clamp on CHO cells stably expressing hERG
Sequence (Q12809 whole entry, looked up): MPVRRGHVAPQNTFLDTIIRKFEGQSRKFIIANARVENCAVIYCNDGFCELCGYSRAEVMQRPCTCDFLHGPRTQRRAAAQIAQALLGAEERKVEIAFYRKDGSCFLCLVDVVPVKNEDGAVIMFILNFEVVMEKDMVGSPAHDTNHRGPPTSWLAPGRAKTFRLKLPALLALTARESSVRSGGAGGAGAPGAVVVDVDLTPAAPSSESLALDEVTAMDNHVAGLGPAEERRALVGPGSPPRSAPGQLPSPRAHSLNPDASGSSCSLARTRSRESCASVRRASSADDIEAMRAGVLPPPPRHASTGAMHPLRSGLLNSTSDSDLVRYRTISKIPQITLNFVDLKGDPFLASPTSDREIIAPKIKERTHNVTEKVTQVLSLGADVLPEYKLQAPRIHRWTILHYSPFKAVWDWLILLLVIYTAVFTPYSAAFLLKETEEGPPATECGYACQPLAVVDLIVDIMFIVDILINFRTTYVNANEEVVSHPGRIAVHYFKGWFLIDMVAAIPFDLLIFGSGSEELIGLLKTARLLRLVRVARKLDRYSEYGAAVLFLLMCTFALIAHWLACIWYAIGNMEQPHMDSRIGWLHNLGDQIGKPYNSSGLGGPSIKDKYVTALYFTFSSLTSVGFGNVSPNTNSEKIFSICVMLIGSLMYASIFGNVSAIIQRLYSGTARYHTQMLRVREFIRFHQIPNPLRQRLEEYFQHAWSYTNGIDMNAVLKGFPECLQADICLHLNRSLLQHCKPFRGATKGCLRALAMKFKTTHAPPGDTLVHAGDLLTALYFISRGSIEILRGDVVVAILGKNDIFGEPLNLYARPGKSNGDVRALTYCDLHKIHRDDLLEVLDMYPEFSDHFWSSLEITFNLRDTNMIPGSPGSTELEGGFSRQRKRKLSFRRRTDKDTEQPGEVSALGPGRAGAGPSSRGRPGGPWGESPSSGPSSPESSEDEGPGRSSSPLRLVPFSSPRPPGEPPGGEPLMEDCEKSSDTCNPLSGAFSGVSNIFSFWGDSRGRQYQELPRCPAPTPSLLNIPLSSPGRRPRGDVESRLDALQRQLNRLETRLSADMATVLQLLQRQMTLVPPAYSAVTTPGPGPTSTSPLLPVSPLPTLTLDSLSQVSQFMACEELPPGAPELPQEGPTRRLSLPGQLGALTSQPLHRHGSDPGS

SMILES | hERG current change (%, negative = inhibition) at 1uM
CC(C)[C@H](NC(=O)C1CCN(S(=O)(=O)c2ccccc2)CC1)C(=O)NCc1ccccc1 | 14.4%
COc1cc(CN2CCNC(=O)C2CC(=O)NC2CCCC2)cc(OC)c1 (stereo not shown) | -11.2%
COc1ccc(C(=O)NC(=S)NCc2cccnc2)cc1Cl | 14%
O=C(O)c1ccc(CN(c2ccccn2)S(=O)(=O)c2ccccc2)cc1 | 20%
CCC(=O)Nc1nc(-c2ccc3c(c2)CC(C)N3S(C)(=O)=O)cs1 (stereo not shown) | 8.47%
O=C(/C=C/c1ccco1)NC(=S)Nc1ccccc1Br | 18.2%
CC(OC(=O)/C=C/c1ccc(Br)cc1)C(=O)N1CCOCC1 (stereo not shown) | 12.9%
CCOC(=O)c1ccc(NC(=O)c2cn(CCC#N)nc2-c2ccc3c(c2)OCCO3)cc1 | -0.0387%
CCOc1ccc(/C=C/C(=O)NC2CCCCC2)cc1 | 6.98%
Cc1c(C(=O)NC2CCCc3ccccc32)oc2ccc(S(=O)(=O)N3CCCC3)cc12 (stereo not shown) | 17.2%
CCCCN(Cc1ccccc1)S(=O)(=O)c1c(N)n(C)c(=O)n(C)c1=O | 7.36%
CS(=O)(=O)N1N=C(c2ccco2)CC1c1ccccc1 (stereo not shown) | 12.5%
Cc1ccccc1CNC(=O)Cc1ccccc1[N+](=O)[O-] | 0.014%
CNC(=S)NNC(=O)Cc1ccccc1 | -2.43%
Cc1cc(C(F)(F)F)n(-c2nc(C(=O)N/N=C/c3ccc(F)cc3)cs2)n1 | -0.351%
Cc1ccc(NCCNc2ccc(C)cc2)cc1 | 2.52%
CCOc1ccc(-n2cnnn2)cc1S(=O)(=O)N1CCCCC1 | 7.17%
O=C1COc2ccc(C(=O)COC(=O)C3CC(O)CN3S(=O)(=O)c3ccc(Cl)cc3)cc2N1 (stereo not shown) | 8.6%
CCOc1cc(CNc2ccc(Br)cc2)cc(Br)c1OCC(=O)NC(C)(C)C | 7.31%
O=C(CSc1ncnc2c(-c3ccc(Cl)cc3)nsc12)c1ccccc1 | 7.86%
CCN(C(=O)Cc1cccs1)c1nnc(-c2cc(OC)c(OC)c(OC)c2)s1 | 7.74%
O=S(=O)(Nc1nc2ccccc2[nH]1)c1ccccc1 | -3.92%
CC(C)CCOP(=O)(c1ccc(N(C)C)cc1)C(O)c1ccccc1 (stereo not shown) | 17.5%
CC1CCc2c(sc3nc(C(C)(C)C)nc(N4CCN(C(=O)CCl)CC4)c23)C1 (stereo not shown) | 9.24%
C=CCNC(=S)Nc1ccc2cn[nH]c2c1 | 1.68%
